Results are given in words; binding and its absence hold for the method and conditions named. In cells and extracts the contact can be indirect. Some binding calls cover weakened binding; strength is not graded here. For some of these results: Tags and fused reporters may be left off the sequences shown.
Key:
[1] = target: wild-type DJ-1 (FLAG-tagged and One-STrEP-tagged, in 293T cells) (human) (UniProt Q99497); assay: pull-down; 293T cells co-transfected with FLAG-tagged and One-STrEP-tagged DJ-1; extracts applied onto Strep-Tactin sepharose; bound proteins blotted with anti-STrEP and anti-FLAG
[2] = target: H126A DJ-1 (FLAG-tagged and One-STrEP-tagged, in 293T cells) (human) (UniProt Q99497); assay: as above
[3] = target: H126A DJ-1 (FLAG-tagged and One-STrEP-tagged, in 293T cells) (human) (UniProt Q99497); assay: co-IP; 293T cells co-transfected with FLAG-tagged and corresponding One-STrEP-tagged DJ-1; extracts (1% NP40) 54 hrs after transfection immunoprecipitated with anti-FLAG M2 agarose; blotted with anti-STrEP
[4] = target: H126A DJ-1 (FLAG-tagged and One-STrEP-tagged, in 293T cells) (human) (UniProt Q99497); assay: cross-linking; 293T cells transfected with FLAG-tagged DJ-1; extracts 24 hrs after transfection reacted with 5 mM DSS for 30 min; Western blot with anti-FLAG; dimer around 45 kDa
[5] = target: E18A/C106S DJ-1 (HA-tagged and One-STrEP-tagged, in DJ-1(-/-) cells) (human) (UniProt Q99497); assay: pull-down; DJ-1(-/-) mouse cells co-transfected with HA-tagged and corresponding One-STrEP-tagged DJ-1; extracts 26 hrs after transfection applied onto Strep-Tactin Sepharose; blotted with anti-HA and anti-StrEP
[6] = target: C106S DJ-1 (HA-tagged and One-STrEP-tagged, in DJ-1(-/-) cells) (human) (UniProt Q99497); assay: as above
[7] = target: C106S DJ-1 (FLAG-tagged and One-STrEP-tagged, in 293T cells) (human) (UniProt Q99497); assay: pull-down; 293T cells co-transfected with FLAG-tagged and One-STrEP-tagged DJ-1; extracts applied onto Strep-Tactin sepharose; bound proteins blotted with anti-STrEP and anti-FLAG
[8] = target: C106S DJ-1 (FLAG-tagged and One-STrEP-tagged, in 293T cells) (human) (UniProt Q99497); assay: co-IP; 293T cells co-transfected with FLAG-tagged and corresponding One-STrEP-tagged DJ-1; extracts (1% NP40) 54 hrs after transfection immunoprecipitated with anti-FLAG M2 agarose; blotted with anti-STrEP
[9] = target: C106S DJ-1 (FLAG-tagged and One-STrEP-tagged, in 293T cells) (human) (UniProt Q99497); assay: cross-linking; 293T cells transfected with FLAG-tagged DJ-1; extracts 24 hrs after transfection reacted with 5 mM DSS for 30 min; Western blot with anti-FLAG; dimer around 45 kDa
[10] = target: E18S DJ-1 (HA-tagged and One-STrEP-tagged, in DJ-1(-/-) cells) (human) (UniProt Q99497); assay: pull-down; DJ-1(-/-) mouse cells co-transfected with HA-tagged and corresponding One-STrEP-tagged DJ-1; extracts 26 hrs after transfection applied onto Strep-Tactin Sepharose; blotted with anti-HA and anti-StrEP
[11] = target: T1, wild-type DJ-1 (FLAG-tagged and One-STrEP-tagged, in 293T cells) (human), Q99497; assay: co-IP; 293T cells co-transfected with FLAG-tagged and corresponding One-STrEP-tagged DJ-1; extracts (1% NP40) 54 hrs after transfection immunoprecipitated with anti-FLAG M2 agarose; blotted with anti-STrEP; conditions: remark: other sources report otherwise
T1 chain: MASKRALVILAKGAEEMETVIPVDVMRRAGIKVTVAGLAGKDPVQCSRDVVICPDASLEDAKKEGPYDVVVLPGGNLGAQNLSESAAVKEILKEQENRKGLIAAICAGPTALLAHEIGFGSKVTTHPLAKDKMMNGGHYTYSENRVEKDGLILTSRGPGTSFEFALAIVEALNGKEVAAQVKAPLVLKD

[12] = target: T1, wild-type DJ-1 (FLAG-tagged and …); assay: pull-down; 293T cells co-transfected with FLAG-tagged and One-STrEP-tagged DJ-1; extracts applied onto Strep-Tactin sepharose; bound proteins blotted with anti-STrEP and anti-FLAG; conditions: remark: other sources report otherwise
[13] = target: T1, wild-type DJ-1 (FLAG-tagged and …); assay: cross-linking; 293T cells transfected with FLAG-tagged DJ-1; extracts 24 hrs after transfection reacted with 5 mM DSS for 30 min; Western blot with anti-FLAG; dimer around 45 kDa; conditions: remark: other sources report otherwise
[14] = target: T2, E18D DJ-1 (HA-tagged and One-STrEP-tagged, in DJ-1(-/-) cells) (human), Q99497; assay: pull-down; DJ-1(-/-) mouse cells co-transfected with HA-tagged and corresponding One-STrEP-tagged DJ-1; extracts 26 hrs after transfection applied onto Strep-Tactin Sepharose; blotted with anti-HA and anti-StrEP; conditions: remark: other sources report otherwise
T2 chain: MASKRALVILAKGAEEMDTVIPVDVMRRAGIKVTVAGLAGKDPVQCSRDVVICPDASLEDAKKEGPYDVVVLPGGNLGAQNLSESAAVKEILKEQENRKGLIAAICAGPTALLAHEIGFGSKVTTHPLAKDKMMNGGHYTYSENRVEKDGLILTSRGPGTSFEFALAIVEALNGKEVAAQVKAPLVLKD

H126A DJ-1 (FLAG-tagged and One-STrEP-tagged, in 293T cells) (from UniProt Q99497 1-189)
binding [1]: binds
binding [2]: binds
binding [3]: binds
binding [4]: binds

E18A/C106S DJ-1 (HA-tagged and One-STrEP-tagged, in DJ-1(-/-) cells) (from UniProt Q99497 1-189)
binding [5]: no binding

C106S DJ-1 (HA-tagged and One-STrEP-tagged, in DJ-1(-/-) cells) (from UniProt Q99497 1-189)
binding [6]: binds

C106S DJ-1 (FLAG-tagged and One-STrEP-tagged, in 293T cells) (from UniProt Q99497 1-189)
binding [1]: binds
binding [7]: binds
binding [8]: binds
binding [9]: binds

E18A DJ-1 (FLAG-tagged and One-STrEP-tagged, in 293T cells) (from UniProt Q99497 1-189)
binding [1]: binds

E18S DJ-1 (HA-tagged and One-STrEP-tagged, in DJ-1(-/-) cells) (from UniProt Q99497 1-189)
binding [10]: no binding

B1: wild-type DJ-1 (FLAG-tagged and One-STrEP-tagged, in 293T cells), Q99497 1-189 (protein)
chain: MASKRALVILAKGAEEMETVIPVDVMRRAGIKVTVAGLAGKDPVQCSRDVVICPDASLEDAKKEGPYDVVVLPGGNLGAQNLSESAAVKEILKEQENRKGLIAAICAGPTALLAHEIGFGSKVTTHPLAKDKMMNGGHYTYSENRVEKDGLILTSRGPGTSFEFALAIVEALNGKEVAAQVKAPLVLKD
binding [11]: binds
binding [12]: binds
binding [13]: binds

B2: E18D DJ-1 (HA-tagged and One-STrEP-tagged, in DJ-1(-/-) cells), Q99497 1-189 (protein)
chain: MASKRALVILAKGAEEMDTVIPVDVMRRAGIKVTVAGLAGKDPVQCSRDVVICPDASLEDAKKEGPYDVVVLPGGNLGAQNLSESAAVKEILKEQENRKGLIAAICAGPTALLAHEIGFGSKVTTHPLAKDKMMNGGHYTYSENRVEKDGLILTSRGPGTSFEFALAIVEALNGKEVAAQVKAPLVLKD
binding [14]: no binding

Source: paper PMC3542337
